Results from paper PMC4336329 (PLoS ONE, 2015).
In all, about 310,000 compounds went through this assay and about 14,000 (4.5%) showed an effect of 50% or more. Effects have a minus sign here. Some of the results follow.

Target: human ether-à-go-go-related gene (hERG) potassium channel (human, UniProt Q12809)
Assay: primary screen, population patch clamp on CHO cells stably expressing hERG
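Note: peak tail current of the secondary pulse compared with the same well before compound.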

Sequence of human ether-à-go-go-related gene (hERG) potassium channel (Q12809 whole entry, looked up): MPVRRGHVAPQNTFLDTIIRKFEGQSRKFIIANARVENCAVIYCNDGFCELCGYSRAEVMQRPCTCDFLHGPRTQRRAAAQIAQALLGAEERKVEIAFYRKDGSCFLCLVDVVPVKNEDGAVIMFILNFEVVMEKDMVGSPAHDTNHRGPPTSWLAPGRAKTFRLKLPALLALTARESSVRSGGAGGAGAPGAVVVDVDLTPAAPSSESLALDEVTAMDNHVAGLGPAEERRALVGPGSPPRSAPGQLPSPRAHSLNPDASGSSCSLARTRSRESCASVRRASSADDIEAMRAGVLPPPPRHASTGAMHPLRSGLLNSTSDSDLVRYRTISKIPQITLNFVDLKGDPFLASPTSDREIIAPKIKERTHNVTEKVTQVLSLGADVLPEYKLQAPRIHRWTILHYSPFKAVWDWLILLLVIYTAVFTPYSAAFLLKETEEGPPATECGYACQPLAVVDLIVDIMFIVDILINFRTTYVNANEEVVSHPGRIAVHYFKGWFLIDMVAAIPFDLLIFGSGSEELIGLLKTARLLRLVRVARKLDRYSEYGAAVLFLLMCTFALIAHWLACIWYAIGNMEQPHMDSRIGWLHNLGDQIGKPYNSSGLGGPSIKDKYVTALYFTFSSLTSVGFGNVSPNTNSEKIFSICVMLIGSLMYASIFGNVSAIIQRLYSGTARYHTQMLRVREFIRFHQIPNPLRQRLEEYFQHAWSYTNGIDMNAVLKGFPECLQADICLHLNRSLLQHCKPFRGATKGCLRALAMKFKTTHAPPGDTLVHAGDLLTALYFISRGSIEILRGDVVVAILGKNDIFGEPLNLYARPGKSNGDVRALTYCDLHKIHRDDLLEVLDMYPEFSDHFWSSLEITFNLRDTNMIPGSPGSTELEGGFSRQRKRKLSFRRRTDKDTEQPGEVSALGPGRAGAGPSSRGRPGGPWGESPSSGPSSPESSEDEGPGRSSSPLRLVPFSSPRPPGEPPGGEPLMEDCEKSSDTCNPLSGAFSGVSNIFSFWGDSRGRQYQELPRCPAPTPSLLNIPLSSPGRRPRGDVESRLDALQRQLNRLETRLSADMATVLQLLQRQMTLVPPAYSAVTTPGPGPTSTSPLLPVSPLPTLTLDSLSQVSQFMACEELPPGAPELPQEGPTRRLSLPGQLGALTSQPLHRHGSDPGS

Compared with `COc1cccc2cc(C(=O)NCc3ccc(C)cc3)c(=O)oc12`, `Cn1c(=O)c(C(=O)NCc2ccc(Cl)cc2)c(O)c2ccccc21` is lower in “hERG current change (%, negative = inhibition) at 10uM” value: 26.3% for the first, 13.4% for the second.

First: O=C(CNC(=O)N1CC(=O)Nc2ccccc21)Nc1ccc(Cl)cc1
Second: O=C(CSc1ccc(F)cc1)NNC(=O)c1ccccc1Br
The “hERG current change (%, negative = inhibition) at 10uM” value of the first is higher: 24.4% for the first, 13% for the second.

Going from `CN(C)c1nc(Nc2ccccc2)nc(N(C)C)n1` to `Cc1sc(NC(=O)c2ccco2)nc1-c1ccccc1`, the “hERG current change (%, negative = inhibition) at 10uM” value falls from 8.3% to -7.37%.

Compared with `Cc1ccc(C)c(S(=O)(=O)N2CCCOC2CNC(=O)C(=O)NCc2cccs2)c1` (centres unmarked), `CC(=O)Nc1ccc(S(=O)(=O)NNC(=O)CCC(=O)Nc2cc(C)ccc2C)cc1` is higher in “hERG current change (%, negative = inhibition) at 10uM” value: -6.85% for the first, 5.31% for the second.

Compared with `Cc1cc2c(c(=O)n1Cc1ccco1)C(c1cccnc1)C(C#N)=C(N)O2` (centres unmarked), `NNC(=O)c1oc2nc(-c3ccccc3)cc(-c3ccco3)c2c1N` is higher in “hERG current change (%, negative = inhibition) at 10uM” value: -4.79% for the first, 0.558% for the second.

Going from `Cc1ccc(S(=O)(=O)N2CCCCC2)cc1NC(=O)c1ccc2c(c1)OCO2` to `Cc1ccc(NS(=O)(=O)c2ccc(C(=O)N3CCCCCCC3)cc2)cc1`, the “hERG current change (%, negative = inhibition) at 10uM” value rises from 6.09% to 8.75%.

First: CCOc1ccc2sc(NS(=O)(=O)c3ccc(OC)c(OC)c3)nc2c1
Second: COc1ccc(S(=O)(=O)NCc2csc(C)n2)cc1
The “hERG current change (%, negative = inhibition) at 10uM” value of the first is higher: 10.2% for the first, 8.86% for the second.

First: CCCc1cc(=O)n2[nH]cnc2n1
Second: CCCc1ccc2oc(C(=O)N3CCNC(=O)C3CC(=O)OC)c(C)c2c1 (centres unmarked)
The “hERG current change (%, negative = inhibition) at 10uM” value of the first is lower: -18.8% for the first, -5.55% for the second.

First: Cc1ccccc1C(=O)N/N=C/c1ccc([N+](=O)[O-])s1
Second: CC1=C/C(=N\NC(=O)c2ccc(O)cc2)CC1
The “hERG current change (%, negative = inhibition) at 10uM” value of the first is lower: 7.25% for the first, 20.8% for the second.

Compared with `CCC[C@H]1COCCS(=O)(=O)N1Cc1ccccc1F`, `O=C1CC(SCCc2nc3ccccc3[nH]2)C(=O)N1c1ccc(Cl)cc1` (centres unmarked) is lower in “hERG current change (%, negative = inhibition) at 10uM” value: 1.68% for the first, -33.3% for the second.

Compared with `Cc1cc(C(=O)CN2C(=O)C(=O)N(C)C2=O)c(C)n1-c1cccc(S(=O)(=O)N2CCOCC2)c1`, `O=C(Nc1c(C(=O)N2CCOCC2)cnn1-c1ccccc1)c1cccc(F)c1` is higher in “hERG current change (%, negative = inhibition) at 10uM” value: -63.4% for the first, 6.38% for the second.

Going from `COc1ccccc1OCC(=O)Nc1ccccc1C(=O)NC1CC1` to `O=C(COC(=O)C1=NN(c2ccccc2)C(=O)CC1)NCc1ccccc1Cl`, the “hERG current change (%, negative = inhibition) at 10uM” value falls from -8.86% to -17.4%.

Compared with `CCC(COC(=O)c1cc(OC)c(OC)c(OC)c1)(c1ccccc1)N(C)C.O=C(O)/C=C\C(=O)O` (centres unmarked), `COc1ccc(C2c3[nH]c4ccccc4c3C[C@H]3C(=O)N(CCCO)CC(=O)N23)cc1OC` (some centres unmarked) is higher in “hERG current change (%, negative = inhibition) at 10uM” value: -13.9% for the first, 10.6% for the second.

Going from `CS(=O)(=O)N1CCc2cc(C(=O)N3CCCCC3)ccc21` to `CC12CCC(=O)N1C(C(=O)N1CCN(S(=O)(=O)c3ccc(Br)cc3Cl)CC1)CS2` (centres unmarked), the “hERG current change (%, negative = inhibition) at 10uM” value falls from -7.42% to -18%.

Going from `CCOc1ccc(NC(=O)C(C)Sc2nccn2C)cc1` (centres unmarked) to `COc1ccc(-c2nnc(SC(C)C(=O)NC3CC3)o2)cc1` (centres unmarked), the “hERG current change (%, negative = inhibition) at 10uM” value rises from 6.78% to 8.81%.

Going from `O=C(NC(=S)NNC(=O)c1ccc(Cl)cc1Cl)c1cccnc1` to `O=C(Nc1ccc([N+](=O)[O-])c(NC(=O)c2cccnc2)c1)c1cccnc1`, the “hERG current change (%, negative = inhibition) at 10uM” value falls from 10.4% to -10.9%.

Going from `O=[N+]([O-])c1cc(Br)cc(C=Nc2ccc3c(c2)OCO3)c1O` to `O=C(CN(Cc1ccc(F)cc1)C(=O)c1csnn1)NCc1ccc2c(c1)OCO2`, the “hERG current change (%, negative = inhibition) at 10uM” value falls from 9.06% to -64.5%.

First: CC1(C(=O)O)CCC(C(=O)Nc2ccc(S(N)(=O)=O)cc2)C1(C)C (centres unmarked)
Second: O=C(Nc1ccncc1)C1CCN(S(=O)(=O)c2cccs2)CC1
The “hERG current change (%, negative = inhibition) at 10uM” value of the first is higher: 10.8% for the first, 5.26% for the second.

First: OCc1cccc(Nc2ncnc3sc4c(c23)CCCCC4)c1
Second: CC(=O)c1cccc(NC(=O)c2ccc(C)o2)c1
The “hERG current change (%, negative = inhibition) at 10uM” value of the first is lower: -19.3% for the first, 10.1% for the second.

First: CC(C)Cc1ccc(CN2CCCC(NC(=O)CCn3cnnn3)C2)cc1 (centres unmarked)
Second: COc1ccc(CNC(=O)[C@@H]2CC=C[C@@H]3CCN(Cc4ccccc4)C(=O)[C@@H]32)cc1
The “hERG current change (%, negative = inhibition) at 10uM” value of the first is lower: -46.2% for the first, 5.37% for the second.

Compared with `CC(=O)Cc1nsc(NC(=O)c2cccs2)n1`, `COc1cc(/C=C2\SC(=S)N(NC(=O)c3ccncc3)C2=O)ccc1O` is lower in “hERG current change (%, negative = inhibition) at 10uM” value: 14.8% for the first, 4.81% for the second.

Going from `CC1CCCCC1NC(=O)C1CC=CCC1C(=O)O` (centres unmarked) to `CN1C(=O)C(=Cc2ccc(N3CCCCCC3)o2)C(=O)N(C)C1=S`, the “hERG current change (%, negative = inhibition) at 10uM” value falls from 10.7% to 6.46%.

Compared with `CCCCCC(=O)NC(Cc1ccc(OC)c([N+](=O)[O-])c1)C(=O)O` (centres unmarked), `COCCn1c(SCC(=O)NC(C)c2ccccc2)nc2ccccc21` (centres unmarked) is lower in “hERG current change (%, negative = inhibition) at 10uM” value: 13.8% for the first, -5.77% for the second.

First: COc1ccc(-n2c(C)nc(N)c2C(=O)c2ccccc2)cc1
Second: Cc1ccc(S(=O)(=O)c2nc(Cc3ccccc3)oc2N2CCOCC2)cc1
The “hERG current change (%, negative = inhibition) at 10uM” value of the first is higher: -0.184% for the first, -1.73% for the second.

Compared with `O=C(OCc1nc2ccccc2s1)[C@@H]1CCCN1S(=O)(=O)c1ccccc1F`, `O=C(OCc1ccccc1)/C(=C/c1cccc2ccccc12)NC(=O)c1ccccc1` is higher in “hERG current change (%, negative = inhibition) at 10uM” value: -1.01% for the first, 0.346% for the second.

Going from `O=C(Nc1cc(C(F)(F)F)cc(C(F)(F)F)c1)c1ccc(Cn2cc(C(F)(F)F)ccc2=O)cc1` to `O=C(CCn1cccc1)Nc1cccc(F)c1`, the “hERG current change (%, negative = inhibition) at 10uM” value falls from 22% to 0.101%.

Compared with `Br.CCN(CC)CCn1c(=N)n(CC(=O)c2ccc(Br)s2)c2ccccc21`, `COCC(C)N1CC(O)=C(c2nc(-c3ccc(Cl)cc3)cs2)C1=N` (centres unmarked) is higher in “hERG current change (%, negative = inhibition) at 10uM” value: -76.9% for the first, 19.9% for the second.

Compared with `Cc1ccc(/C=C/C(=O)Nn2cnnc2)cc1`, `ON=C1CCN(c2ncc(C(F)(F)F)cc2Cl)CC1` is lower in “hERG current change (%, negative = inhibition) at 10uM” value: 5.24% for the first, -11.7% for the second.
